# Laboratory results reported in PMC4336329 (PLoS ONE, 2015).
# Screen size: about 310,000 compounds; about 14,000 (4.5%) showed an effect of 50% or more. The effect is printed as a negative number. The list shows a part of the results.
# Molecular target: human ether-à-go-go-related gene (hERG) potassium channel (human, UniProt Q12809)
# Experiment: primary screen, population patch clamp on CHO cells stably expressing hERG
# 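Also: peak tail current of the secondary pulse compared with the same well before compound.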
# Sequence of human ether-à-go-go-related gene (hERG) potassium channel (Q12809 whole entry, looked up): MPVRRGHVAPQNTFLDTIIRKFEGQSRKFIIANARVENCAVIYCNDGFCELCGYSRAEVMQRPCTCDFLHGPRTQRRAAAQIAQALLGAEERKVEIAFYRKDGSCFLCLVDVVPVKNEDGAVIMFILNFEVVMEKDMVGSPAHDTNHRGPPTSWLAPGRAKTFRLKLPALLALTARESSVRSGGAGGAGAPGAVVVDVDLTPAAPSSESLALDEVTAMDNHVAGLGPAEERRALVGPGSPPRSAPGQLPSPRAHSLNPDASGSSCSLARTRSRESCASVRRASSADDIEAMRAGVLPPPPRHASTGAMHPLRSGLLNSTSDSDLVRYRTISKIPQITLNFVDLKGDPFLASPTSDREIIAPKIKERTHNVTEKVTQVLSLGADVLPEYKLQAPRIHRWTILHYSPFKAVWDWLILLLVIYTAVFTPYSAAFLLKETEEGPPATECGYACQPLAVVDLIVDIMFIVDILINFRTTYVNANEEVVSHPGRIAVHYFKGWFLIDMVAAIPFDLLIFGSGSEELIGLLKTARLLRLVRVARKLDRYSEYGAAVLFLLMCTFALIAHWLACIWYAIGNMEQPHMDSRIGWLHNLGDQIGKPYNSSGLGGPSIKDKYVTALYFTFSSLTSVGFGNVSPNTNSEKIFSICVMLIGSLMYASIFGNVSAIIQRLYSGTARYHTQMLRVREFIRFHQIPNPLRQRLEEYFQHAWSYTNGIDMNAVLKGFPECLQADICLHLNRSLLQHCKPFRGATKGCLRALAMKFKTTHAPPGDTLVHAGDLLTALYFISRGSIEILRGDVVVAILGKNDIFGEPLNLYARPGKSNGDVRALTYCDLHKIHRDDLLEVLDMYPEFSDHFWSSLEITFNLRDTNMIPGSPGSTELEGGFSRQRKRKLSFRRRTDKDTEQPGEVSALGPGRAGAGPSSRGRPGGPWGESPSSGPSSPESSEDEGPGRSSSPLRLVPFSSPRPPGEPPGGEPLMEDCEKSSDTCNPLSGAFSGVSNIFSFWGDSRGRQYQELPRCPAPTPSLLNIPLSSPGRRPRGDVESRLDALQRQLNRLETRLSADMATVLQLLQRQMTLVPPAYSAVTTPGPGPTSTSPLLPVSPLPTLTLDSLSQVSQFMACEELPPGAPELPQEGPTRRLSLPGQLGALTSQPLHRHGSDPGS
row,SMILES,"hERG current change (%, negative = inhibition) at 10uM"
1,Cc1ccc(N2CC(C(=O)N3CCC4(CC3)CC(=O)c3ccccc3O4)CC2=O)cc1 (stereo not drawn),-71.6%
2,COc1ccc(NC(=O)[C@@H](NC(=O)N2C[C@H]3C[C@@H](C2)c2cccc(=O)n2C3)C(C)C)cc1OC,21.1%
3,Clc1ccc(Sc2cnc3ccccc3n2)cc1,5.72%
4,Cc1ccc(S(=O)(=O)NCc2ccccc2)cc1C(=O)N1CCCC(C(F)(F)F)C1 (stereo not drawn),-38%
5,CCn1nnc(-c2ccccc2NS(=O)(=O)c2ccc(S(=O)(=O)N3CCCCCC3)cc2)n1,-0.0422%
6,COc1ccc(CN(Cc2ccc(C(=O)O)cc2)C(=S)Nc2cc(C)cc(C)c2)cc1OC,7.52%
7,O=C(COc1ccc(S(=O)(=O)N2CCOCC2)cc1)Nc1ccccc1F,1.54%
8,Cc1ccc(NC(=O)c2cc(-c3ccccc3)n[nH]2)cc1,18.3%
9,CC(=O)Nc1ccc(S(=O)(=O)NCCNS(=O)(=O)c2ccc(NC(C)=O)cc2)cc1,26.8%
10,CCOC(=O)N1CCN(C(=O)CN(C)S(=O)(=O)c2ccc(Cl)cc2)CC1,8.13%
11,O=C(N/N=C\c1cc(Cl)ccc1O)c1ccc(S(=O)(=O)N2CCCCC2)cc1,-2%
12,CCOC(=O)c1c(C)[nH]c(C)c1S(=O)(=O)NCc1cc(C)ccc1C,-6.49%
13,COc1cc(Cl)c(C)cc1NC(=O)COC(=O)c1cc(SC)ccc1Cl,8.99%
14,CC1CC/C(=N/Nc2ccccc2)C(=O)N1 (stereo not drawn),-2.54%
15,CCOc1ccc(N(CC(=O)O)S(=O)(=O)c2ccc(F)cc2)cc1,-13%
16,COCCN(CC1CCCN(C2Cc3ccccc3C2)C1)C(=O)CCC(N)=O (stereo not drawn),-75.1%
17,O=C(O)CCNC(=O)c1cncc(Br)c1,3.16%
18,Cn1c(=O)c2c(nc(SCC(=O)c3cccs3)n2Cc2ccc(F)cc2)n(C)c1=O,-13.2%
19,O=c1[nH]c(SCc2cccc(F)c2)nc2ccccc12,5.94%
20,OCC1CCN(Cc2cn(Cc3ccccc3)nc2-c2cc3ccccc3o2)CC1,-67%
21,Cc1nn(-c2ccccc2)c(C)c1C(=O)OCC(=O)c1c(N)n(CC(C)C)c(=O)n(C)c1=O,9.06%
22,CC1=C(C(=O)Nc2ccccc2)C(c2cccnc2)n2nc(-c3cccnc3)nc2N1 (stereo not drawn),-5.97%
23,Cc1ccc(S(=O)(=O)NNC(=O)CCCCC(=O)NNS(=O)(=O)c2ccc(C)cc2)cc1,1.4%

row,SMILES,"hERG current change (%, negative = inhibition) at 10uM"
1,CC(NC(=O)c1ccccc1)C(=O)N/N=C/c1ccccc1 (stereo not drawn),14.4%
2,COc1c([N+](=O)[O-])c(=O)n(-c2ccccc2)c2ccccc12,5.17%
3,Cc1cc(-c2ccccc2)nc(N(C)NC(=O)C2CC2)c1S(C)(=O)=O,11.6%
4,O=C(CSC(=S)N1CCCCC1)c1c(F)cccc1F,34.3%
5,Br.CC(=O)c1sc(N/N=C2\CC3CC2C(C)C3(C)C)nc1C (stereo not drawn),-24.8%
6,CCCNC(=O)NC(=O)COc1ccc2oc3ccccc3c2c1,12.3%
7,CCOC(=O)N1CCN(C(=O)CNC(=O)c2nn(-c3ccc(OC)c(Cl)c3)c(=O)c3ccccc23)CC1,-20.7%
8,N#Cc1ccc(COC(=O)c2ccc3c(=O)[nH]c(CN4CCOCC4)nc3c2)cc1,-34.1%
9,Cc1ccc(S(=O)(=O)Nc2cccc3c2CCCC3)cc1,4.63%
10,Cn1c(=O)c2c(nc(OCc3ccccc3)n2C)n(C)c1=O,4.72%
11,CCOC(=O)Cc1cc(=O)n2[nH]c(C)c(-c3ccc(OC)cc3)c2n1,-17.9%
12,CCOC(=O)N1CCN(Cc2nc3cc(NC(=O)C(C)C)ccc3n2CC)CC1,14.3%
13,O=C1CSC(=Nc2ccccc2[N+](=O)[O-])N1,1.79%
14,CCOc1ccccc1NCc1nnc(-c2ccccc2)o1,5.02%
15,Cc1ccccc1-c1nc(-c2ccccn2)no1,-3.82%
16,COc1cc2c(cc1OC)C(c1ccc(Br)cc1)N(C(=O)c1ccccc1C(=O)O)CC2 (stereo not drawn),9.72%
17,O=C(COc1ccccc1Cl)N1CCN(C(=O)c2ccco2)CC1,-10.8%
18,COc1ccc(N(C)S(=O)(=O)c2ccc3c(c2)oc(=O)n3C)cc1,2.38%
19,CC(C)CNS(=O)(=O)c1ccc(CCC(=O)NCc2cccnc2)cc1,-8.2%
20,COc1ccc(CC(=O)Nc2c(C(=O)N3CCN(c4ncccn4)CC3)oc3ccccc23)cc1,-63.7%
21,CCn1c2ccccc2c2nn(C)c(=N)nc21,-46.6%
22,CCc1nnc(NC(=O)CCN(c2ccc(C)cc2)S(=O)(=O)c2ccccc2)s1,13.2%
23,CCC1CCCCN1S(=O)(=O)c1ccc(C(=O)N(CCCN(C)C)c2nc3cc4c(cc3s2)OCO4)cc1.Cl (stereo not drawn),-56%

row,SMILES,"hERG current change (%, negative = inhibition) at 10uM"
1,COc1ccc(OC)c(NC(=O)c2cnc(Nc3ccccc3OC)c3ccccc23)c1,-7.53%
2,Cc1c(C(=O)NC(C)c2ccncc2)oc2ccccc12 (stereo not drawn),-29.7%
3,COc1ccc(Cl)cc1NC(=O)CN(C)C(=O)C12CC3CC(CC(Cl)(C3)C1)C2,-29.1%
4,CN(C)CCNC(=O)c1ccc(CS(=O)(=O)c2ccc(Br)cc2)o1,-3.14%
5,FC(F)(F)c1ccc2c(c1)nnn2C1CCN(Cc2nnnn2Cc2ccccc2)CC1,-50.9%
6,Brc1ccc2c(c1)CN1CCCC1=N2,-14.2%
7,CSc1ccccc1NC(=O)Cc1ccc(Br)cc1,-10.2%
8,CC1CC(=O)NN=C1c1cccs1 (stereo not drawn),6.17%
9,CCc1ccc(C(C)NC(=O)C2(C)CC2(Br)Br)cc1 (stereo not drawn),-9.54%
10,COc1ccccc1Nc1ccc(NC(=O)c2cccc([N+](=O)[O-])c2C)cc1,14.4%
11,CCCCN1CCc2c([nH]c3c(C)cccc23)C1=O,-7.88%
12,COc1ccc(CCn2c(O)c(/C=N/N3CCCCC3)c(=O)[nH]c2=O)cc1OC,0.059%
13,COc1ccccc1N1CCN(CC(=O)N2N=CCC2c2ccccc2)CC1 (stereo not drawn),-16.6%
14,Cc1ccc2c(c1)N(C(=O)CCC(=O)NCC(C)c1ccccc1)CC(C)O2 (stereo not drawn),-29.1%
15,CCN1C(=Nc2ccc(Cl)cc2)SC/C1=C\C(=O)OC,7.99%
16,Cc1cccc(N2CCN(C(=O)c3c(-c4ccccc4)noc3C)CC2)c1C,-9.6%
17,COc1cc2c(cc1NC(=O)CSc1ccccc1)oc1ccccc12,13.6%
18,COc1ccc(N(CC(O)CN2CCOCC2)S(=O)(=O)c2ccc(C)cc2)cc1 (stereo not drawn),-45.2%
19,CCc1ccc(OCCOCC(O)CN2CCN(Cc3ccc(Cl)cc3)CC2)cc1.Cl (stereo not drawn),-73.5%
20,O=C(Nc1cccc(F)c1)C1CCN(S(=O)(=O)c2cnc[nH]2)CC1,4.4%
21,Cc1cc(C)cc(NC(=O)COC(=O)CCn2c(C)csc2=O)c1,-16.2%
22,Cc1nc2cc(NCc3ccc(Cl)cc3)ccc2n1C,-70.6%
23,C=CCC(=O)N1CCCC(C(=O)c2ccc(Cl)cc2)C1 (stereo not drawn),7.88%

row,SMILES,"hERG current change (%, negative = inhibition) at 10uM"
1,CC(=O)Nc1ccc(Cc2ccncc2)cc1,12.1%
2,CCCOc1ccc(N2C(=O)CC(NCc3cccnc3)C2=O)cc1 (stereo not drawn),-11%
3,CCCC(=O)Nc1c(-c2cccc(C)c2)c(=O)c2ccccc2n1C,14%
4,CC1CCN(C(=O)c2ccc(SCc3ccccc3F)c([N+](=O)[O-])c2)CC1,10.6%
5,CCCN1C2=C(C(=O)CC(C)(C)C2)C(c2ccc(F)cc2)C2=C1c1ccccc1C2=O (stereo not drawn),-1.38%
6,O=c1ccc(-c2ccc(S(=O)(=O)NCc3cccc(Br)c3)s2)n[nH]1,-24.8%
7,Cc1noc(C)c1C(=O)OCC(=O)c1ccc[nH]1,-7.07%
8,CCc1nc2oc3ccccc3c(=O)c2c(=O)n1CCOC,-19.2%
9,O=C(COC(=O)C1(c2ccccc2)CC1)N1CCN(c2ccc(F)cc2)CC1,-44.3%
10,Cc1ccc(NC(=O)CN(C)CC(=O)Nc2cccc(F)c2)cc1[N+](=O)[O-],-34.3%
11,Cc1ccc(NC(=O)CSc2nc(=O)n(CCCN3CCOCC3)c3c2CCCC3)c(C)c1,-36.7%
12,Cc1cc(NC(=O)Nc2ccc(Cl)c(Cl)c2)n(-c2ccccc2)n1,13.9%
13,COc1cccc(NC(=O)Cn2c(CCC(=O)O)ccc2-c2ccc(C)cc2)c1,14.7%
14,COc1ccc(C(=O)N2CCC(n3c(C)nc4cc(F)ccc43)CC2)cc1OC,-69%
15,C=CCOc1ccccc1CN1CCCN(C)CC1,6.51%
16,COc1ccc(/C=C2\SC(=O)N(CCC(=O)Nc3ccc(S(=O)(=O)Nc4nccs4)cc3)C2=O)cc1,-0.0124%
17,O=C(COC(=O)CCc1nc2ccccc2s1)Nc1ncc(Cl)cc1Cl,6.7%
18,CSc1nnc(C)c(=O)n1COC(=O)COc1ccc2ccccc2c1,-7.33%
19,CCSc1ccccc1C(=O)NCc1ccc2c(c1)OCO2,-24.8%
20,CC(C)CC(O)C1CCN(C(=O)CCc2nnc(-c3ccc4c(c3)OCO4)o2)CC1 (stereo not drawn),6.87%
21,Cc1cc(C)cc(C(=O)Oc2coc(CSc3nnc(NC(=O)C4CC4)s3)cc2=O)c1,1.6%
